Measurements from publication PMC4336329 (PLoS ONE, 2015).
The campaign covered roughly 310,000 compounds. About 14,000 (4.5%) showed an effect of 50% or more. Effects have a minus sign here. The list shows a part of the results. Where a SMILES comes first, the peptide text is derived from it. The star is where a group is joined. Boc = CC(C)(C)OC(=O)*; Bn = c1ccc(C*)cc1

Molecular target: human ether-à-go-go-related gene (hERG) potassium channel (human, UniProt Q12809)
Assay: primary screen, population patch clamp on CHO cells stably expressing hERG
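Further: peak tail current of the secondary pulse compared with the same well before compound.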

human ether-à-go-go-related gene (hERG) potassium channel, sequence (Q12809 whole entry, looked up): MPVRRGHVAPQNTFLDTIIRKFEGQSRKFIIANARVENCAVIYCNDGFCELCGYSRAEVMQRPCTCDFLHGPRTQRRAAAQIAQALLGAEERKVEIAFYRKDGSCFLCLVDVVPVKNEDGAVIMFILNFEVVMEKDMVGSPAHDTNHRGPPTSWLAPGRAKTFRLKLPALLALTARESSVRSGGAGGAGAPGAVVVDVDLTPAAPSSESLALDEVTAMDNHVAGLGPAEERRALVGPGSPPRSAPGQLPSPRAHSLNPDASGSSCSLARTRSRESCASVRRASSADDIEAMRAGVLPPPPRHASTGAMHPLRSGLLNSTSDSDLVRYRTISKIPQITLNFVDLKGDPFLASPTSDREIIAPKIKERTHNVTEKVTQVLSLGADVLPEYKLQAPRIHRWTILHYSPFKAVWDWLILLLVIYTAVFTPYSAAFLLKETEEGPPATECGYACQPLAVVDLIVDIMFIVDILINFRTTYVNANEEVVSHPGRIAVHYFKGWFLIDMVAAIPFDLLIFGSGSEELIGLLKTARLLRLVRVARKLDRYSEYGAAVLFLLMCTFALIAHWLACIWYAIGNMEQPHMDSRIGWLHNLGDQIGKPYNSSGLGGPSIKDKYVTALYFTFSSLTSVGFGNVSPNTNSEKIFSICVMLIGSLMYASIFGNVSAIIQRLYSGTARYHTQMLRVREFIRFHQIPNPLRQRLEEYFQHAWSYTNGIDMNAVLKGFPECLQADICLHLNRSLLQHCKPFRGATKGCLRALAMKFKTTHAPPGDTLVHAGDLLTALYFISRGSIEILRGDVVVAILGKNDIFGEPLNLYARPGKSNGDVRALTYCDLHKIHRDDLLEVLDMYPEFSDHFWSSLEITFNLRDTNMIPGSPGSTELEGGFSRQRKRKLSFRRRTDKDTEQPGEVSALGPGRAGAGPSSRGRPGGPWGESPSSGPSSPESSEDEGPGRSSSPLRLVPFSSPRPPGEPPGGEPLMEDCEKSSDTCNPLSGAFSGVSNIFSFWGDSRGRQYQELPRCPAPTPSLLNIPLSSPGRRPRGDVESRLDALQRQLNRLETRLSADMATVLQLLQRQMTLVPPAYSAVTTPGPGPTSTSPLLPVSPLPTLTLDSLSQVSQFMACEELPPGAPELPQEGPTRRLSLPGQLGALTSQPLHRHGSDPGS

SMILES | hERG current change (%, negative = inhibition) at 10uM [%]
O=c1c(-c2ccco2)[n+]([O-])c2ccccc2n1OCc1ccccc1 | 2.1
O=C(O)C(=O)O.OC(COC(c1ccc(F)cc1)c1ccc(F)cc1)CN1CCCC(C(F)(F)F)C1 (centres unmarked) | 10.8
CC(NC(=O)c1ccc(F)cc1)C(c1cccs1)N1CCN(C)CC1 (centres unmarked) | 2.37
COc1ccccc1NS(=O)(=O)c1cc(C(=O)NCC(c2ccco2)N(C)C)ccc1C (centres unmarked) | -7.74
O=C(NC1CCCN(c2ccc(C(F)(F)F)cn2)C1)c1ccnc(Cl)c1 (centres unmarked) | -55.5
COc1cccc2sc(NNC(=O)c3nc4ccccc4s3)nc12 | 6.33
Cc1cccc(CC2S/C(=N/c3ccccn3)NC2=O)c1 (centres unmarked) | 6.95
O=C(NCc1cccnc1)c1sc2ccccc2c1Cl | -28.9
O=C(O)c1ccc(C(=O)C(=O)c2ccccc2)cc1 | -4.15
Cc1ccc(S(=O)(=O)Nc2cnc3ccccc3c2)cc1 | 17.3
CCOC(=O)C1=C(C)NC2=C(C(=O)CCC2)C1c1cccnc1 (centres unmarked) | -13.7
COCCCNC(=O)c1cc(Sc2ccc(F)cc2)nc2ccccc12 | -26.9
Cc1ccccc1C(=O)N1CCN(c2ncnc3c2cnn3-c2ccccc2)CC1 | -9.76
CC(=O)c1cc2c(cc1NC(=O)Cn1nc(-c3ccc(F)cc3)ccc1=O)OCO2 | -37.3
N#CC1(NC(=O)CN2c3cccc4cccc(c34)S2(=O)=O)CCCCC1 | 14.9
COc1ccc(-c2ccc3nnc(SCC(=O)NCC4CCCO4)n3n2)cc1 (centres unmarked) | -9.98
COc1ccccc1C(=O)NNC(=O)Cc1ccccc1 | 14.4
S=C1N(c2ccccc2)CN(C2CCCCC2)CN1c1ccccc1 | 19.3
O=C(Cc1ccc(F)cc1)NCCc1cnc[nH]1 | 21.8
COc1ccc2[nH]c(=O)c(CN(CCO)S(=O)(=O)c3ccc(C)cc3)cc2c1 | -9.52
CN1/C(=C\C(=O)c2cccc([N+](=O)[O-])c2)Sc2ccccc21 | 10.8
Cc1cccc(S(=O)(=O)c2c(N)n(Cc3ccco3)c3nc4ccccc4nc23)c1 | 12.3

SMILES | hERG current change (%, negative = inhibition) at 10uM [%]
O=C(CN1CCN(c2ccccc2F)CC1)NC(=O)NCc1ccccc1 | -0.456
CC(=O)C(C)Oc1ccc2c3c(c(=O)oc2c1)CCCC3 (centres unmarked) | -12.8
O=C1C2C3C=CC(C3=C(c3ccccc3)c3ccccc3)C2C(=O)N1CCO (centres unmarked) | -39.2
COC(=O)CSc1nnnn1-c1cccc2ccccc12 | -4.4
COc1ccc(CN=C2NN=C(c3ccccc3)CS2)cc1 | 4.33
Cc1nn(CCO)c2ncc(C(=O)c3cc(Cl)ccc3O)cc12 | 15.3
C[C@@H]1[C@H]2[C@@H](O[C@@H]3O[C@H](CO)[C@@H](O)[C@H](O)[C@H]3O)OC=C(C(=O)O)[C@H]2C[C@@H]1O | 16.7
c1nc2nc3c(c(N4CCNCC4)n2n1)CCCC3 | 4.81
CN1C(=O)/C(=C/c2ccccc2OCc2cccc(F)c2)NC1=S | 11
CCn1cc(Cl)c(C(=O)Nc2nc3ccccc3n2CCN2CCCCC2)n1 | -65.5
CCOc1ccc(N(CC(=O)NC2CCCC2)C(=O)CCCC(=O)Nc2ccccn2)cc1 | -10.8
O=C(Nc1ccccc1)c1cnc2n(c1=O)CCS2 | -14.6
N=c1c2c(ncn1CCCO)Oc1c(ccc3ccccc13)C2c1ccccc1 (centres unmarked) | -70.4
O=C(NCc1ccco1)/C(=C\c1cccnc1)NC(=O)c1ccccc1F | -51.1
CC(C)CC(NC(=O)C(CC(C)C)NC(=O)C(Cc1ccc(OCc2ccccc2)cc1)NC(=O)OC(C)(C)C)C(N)=O (stereo not drawn) (Boc-Tyr(Bn)-Leu-Leu-NH2; configuration not given here) | 13.3
CCn1c(SCc2nc(-c3ccccc3)no2)nnc1-c1ccco1 | -36.3
CCCCOc1c(Br)cc(CNCCCN2CCOCC2)cc1OC.Cl | -35
Cc1csc(NC(=O)C2C3C=CC(C3)C2C(=O)O)n1 (centres unmarked) | -6.11
COC(=O)C(NC(=O)c1ccco1)(Nc1ccc(Br)cn1)C(F)(F)F (centres unmarked) | -14.7
CC(=O)NCc1ccc(C(=O)CCl)s1 | -7.15
CC(=O)Nc1cccc(NC(=O)C2CCCN2C(=O)Nc2ccc(C)cc2)c1 (centres unmarked) | 16.8
CCOC(=O)Cc1csc(NC(=O)COc2ccc(N(C)S(=O)(=O)c3cccs3)cc2)n1 | -36.9

SMILES | hERG current change (%, negative = inhibition) at 10uM [%]
Cc1c(C(=O)Nc2cccc([N+](=O)[O-])c2)sc2ncn(CC(=O)N3CCOCC3)c(=O)c12 | -7.66
COc1cc(Cl)ccc1OCc1cc(C(=O)NCc2cc(C(C)C)no2)no1 | -18.1
Nc1nn2cc(-c3ccccc3)nc2c2ccccc12 | -45
COc1cc2cnc(-c3ccccc3)c(-c3cc(OC)c(OC)c(OC)c3)c2cc1OC | -0.323
Cc1ccc2[nH]c(CNC(=O)C3CCCCC3)cc2c1 | 14.7
CC(C)C[C@H](NC(=O)c1nc[nH]c1C(=O)NCCCCCNC(=O)OC(C)(C)C)C(=O)OCc1ccccc1 | 9.86
CN(Cc1ccccc1)C(=O)c1c[nH]c2ccc(S(=O)(=O)N3CCOCC3)cc2c1=O | 3.03
CCOC(=O)C1C(=O)NC(N2CCN(Cc3ccccc3)CC2)=NC1c1ccco1 (centres unmarked) | 6.47
Cc1ccc(C2=NOC(C)(c3nnc(-c4ccc(F)cc4)o3)C2)cc1 (centres unmarked) | -15
Cc1ccc(NC(=O)NNC(=O)COc2ccc([N+](=O)[O-])cc2)cc1C | 10.7
O=C(O)c1ccc(/C=N/Nc2nc3ccccc3[nH]2)cc1 | 13.9
Cn1cnc2c1c(=O)n(CC(O)CO)c(=O)n2C (centres unmarked) | 23
FC(F)(F)c1nc(N2CCCC2)ncc1-c1nnnn1-c1ccccc1 | -1.8
CCn1c(CSCc2ccc(F)cc2)nnc1SCC(=O)N1CCN(c2ccccc2)CC1 | -58.6
O=C(NCC1CC1)c1cc([N+](=O)[O-])cc([N+](=O)[O-])c1 | 0.0222
CCOc1ccc(S(=O)(=O)n2ccnc2)c2ccccc12 | 11.4
O=C(Nc1cccc(-n2cccn2)c1)C1CCCN(Cc2ccccc2F)C1 (centres unmarked) | -30.4
C/C(CC(=O)Nc1ccccn1)=N\NC(=O)c1cccc(C)c1 | -1.25
CCOC(=O)C1CCCN(C(=O)c2ccc(OC)c([N+](=O)[O-])c2)C1 (centres unmarked) | -4.74
CC(C)(C)[C@H]1C=C(C(=O)N2CCN(Cc3ccc4c(c3)OCO4)CC2)O[C@@H](OCc2ccc(CO)cc2)C1 | -33.7
O=[N+]([O-])c1ccccc1Nc1cccnc1 | 6.81
COc1ccc(S(=O)(=O)n2ccnc2C)c(C)c1C | 27

SMILES | hERG current change (%, negative = inhibition) at 10uM [%]
Cc1ccc(S(=O)(=O)N(C)CCCC(=O)NC(C)(C)CO)cc1 | 14.8
Cc1cc(SCC(=O)c2ccc(Cl)cc2)nc(=O)[nH]1 | 7.32
O=C(Nc1ccc(Cl)c(Cl)c1)Nc1nc(-c2ccccc2)cs1 | 0.795
COCCn1c(N)c(N(Cc2ccccc2)C(=O)c2oc3ccccc3c2C)c(=O)[nH]c1=O | 6.15
O=C(NCCC(=O)N1CCN(c2cccc(Cl)c2)CC1)c1ccc(Br)cc1 | -55
O=C(Cn1ccc2ccccc21)Nc1ccc2c(c1)OCO2 | 15.2
CCCCn1c(-c2ccccc2)cnc1SCC(=O)NCCc1ccc(OC)c(OC)c1.Cl | -21.5
CCOC(=O)c1ccc(N2C(=O)CC(SCC(=O)Nc3ccc(S(N)(=O)=O)cc3)C2=O)cc1 (centres unmarked) | 21.2
COc1ccccc1CN1CCN(C(=O)c2ccco2)CC1.O=C(O)C(=O)O | 1.97
COc1ccc(NS(=O)(=O)c2ccc(S(=O)(=O)N3CCCC3)cc2)cc1 | -5.14
c1ccc2c(c1)OCCOCCOCCO2 | 10
COC(=O)c1[nH]c2ccccc2c1NC(=O)CN1CCN(C/C=C/c2ccccc2)CC1 | -76.4
O=C(CSc1cccc(C(F)(F)F)c1)NCc1ccccc1 | -10.6
Cn1ncc(Cl)c1C(=O)NC(=S)Nc1sc2c(c1C#N)CCCCC2 | 22.5
CCOC(=O)c1[nH]c2c(c1C)C(=O)CC(c1ccc(F)cc1)C2 (centres unmarked) | 1.31
Nc1ccc2ncccc2c1N | 6.47
O=C(NCCc1c[nH]c2ccccc12)C(=O)NCC1OCCCN1S(=O)(=O)c1cccs1 (centres unmarked) | -0.324
Cc1ccc(CC(=O)NCC(C)C)cc1 | 5.3
COc1ccccc1OCc1cc(C(=O)N2CC3C[C@@H]4CC2C[C@H](C3)C4)no1 | -6.52
Cc1cc(C(=O)N(C)CC(=O)Nc2ccccc2C(F)(F)F)c(C)o1 | -15
